≈ marks a conversion by molar mass, not a printed value. Where “and” joins values, the source holds several entries; their conditions need not be identical. Equal entries are not always repeated. ± gives the standard deviation of the averaged measurements. MIC of E. coli strains with or without a β-lactamase plasmid, in LB (broth microdilution, 22 h, 37 °C, OD600 below 0.2; fosfomycin by agar dilution); pBAD18 genes induced with arabinose where stated. Higher = less susceptible. No active / inactive call. Values are arithmetic means of replicate MICs, so they fall between dilution steps. Colistin is a mixture; one drawing stands for it.
Key:
Experiment in all cases: Broth microdilution in LB (fosfomycin: agar dilution), 22 h at 37 °C; MIC = lowest dose with OD600 below 0.2.
Escherichia coli ECOR27 = tested on: Escherichia coli ECOR27
Escherichia coli ECOR42 = tested on: Escherichia coli ECOR42
Escherichia coli ECOR49 = tested on: Escherichia coli ECOR49
Escherichia coli ECOR47 = tested on: Escherichia coli ECOR47
Escherichia coli ECOR35 = tested on: Escherichia coli ECOR35
Escherichia coli ECOR01 = tested on: Escherichia coli ECOR01
Escherichia coli ECOR61 = tested on: Escherichia coli ECOR61
Escherichia coli ECOR53 = tested on: Escherichia coli ECOR53
Escherichia coli J53 = tested on: Escherichia coli J53
[1] = tested on: Escherichia coli BW25113 (arabinose: 0.5% w/v)
Escherichia coli ECOR70 = tested on: Escherichia coli ECOR70

CCC(C)CCCC(=O)N[C@@H](CCN)C(=O)N[C@H](C(=O)N[C@@H](CCN)C(=O)N[C@H]1CCNC(=O)[C@H]([C@@H](C)O)NC(=O)[C@H](CCN)NC(=O)[C@H](CCN)NC(=O)[C@H](CC(C)C)NC(=O)[C@@H](CC(C)C)NC(=O)[C@H](CCN)NC1=O)[C@@H](C)O (stereo partly drawn) [colistin]
Details	MIC
Escherichia coli ECOR01, plasmid: none	6 ± 2.2 µg/mL (≈ 5.19 µM)
Escherichia coli ECOR01, plasmid: pUN4 empty	6 ± 2.2 µg/mL (≈ 5.19 µM)
Escherichia coli ECOR01, plasmid: pUN4 with blaCTX-M-15	3.33 ± 1 µg/mL (≈ 2.88 µM)
Escherichia coli ECOR01, plasmid: pUN4 with blaOXA-48	3.17 ± 1.3 µg/mL (≈ 2.74 µM)
Escherichia coli ECOR27, plasmid: none	7.33 ± 1.6 µg/mL (≈ 6.35 µM)
Escherichia coli ECOR27, plasmid: pUN4 empty	7.33 ± 1.6 µg/mL (≈ 6.35 µM)
Escherichia coli ECOR27, plasmid: pUN4 with blaCTX-M-15	4 µg/mL (≈ 3.46 µM)
Escherichia coli ECOR27, plasmid: pUN4 with blaOXA-48	3.67 ± 0.82 µg/mL (≈ 3.17 µM)
Escherichia coli ECOR35, plasmid: none	8 µg/mL (≈ 6.92 µM)
Escherichia coli ECOR35, plasmid: pUN4 empty	6 ± 2.2 µg/mL (≈ 5.19 µM)
Escherichia coli ECOR35, plasmid: pUN4 with blaCTX-M-15	4 µg/mL (≈ 3.46 µM)
Escherichia coli ECOR35, plasmid: pUN4 with blaOXA-48	4 µg/mL (≈ 3.46 µM)
Escherichia coli ECOR42, plasmid: none	6.67 ± 2.1 µg/mL (≈ 5.77 µM)
Escherichia coli ECOR42, plasmid: pUN4 empty	6.67 ± 2.1 µg/mL (≈ 5.77 µM)
Escherichia coli ECOR42, plasmid: pUN4 with blaCTX-M-15	4.67 ± 1.6 µg/mL (≈ 4.04 µM)
Escherichia coli ECOR42, plasmid: pUN4 with blaOXA-48	6 ± 2.2 µg/mL (≈ 5.19 µM)
Escherichia coli ECOR47, plasmid: none	7.33 ± 1.6 µg/mL (≈ 6.35 µM)
Escherichia coli ECOR47, plasmid: pUN4 empty	6.67 ± 2.1 µg/mL (≈ 5.77 µM)
Escherichia coli ECOR47, plasmid: pUN4 with blaCTX-M-15	4.67 ± 1.6 µg/mL (≈ 4.04 µM)
Escherichia coli ECOR47, plasmid: pUN4 with blaOXA-48	5.33 ± 2.1 µg/mL (≈ 4.62 µM)
Escherichia coli ECOR49, plasmid: none	4 ± 2.2 µg/mL (≈ 3.46 µM)
Escherichia coli ECOR49, plasmid: pUN4 empty	6 ± 2.2 µg/mL (≈ 5.19 µM)
Escherichia coli ECOR49, plasmid: pUN4 with blaCTX-M-15	3.17 ± 1.3 µg/mL (≈ 2.74 µM)
Escherichia coli ECOR49, plasmid: pUN4 with blaOXA-48	2.2 ± 1.6 µg/mL (≈ 1.9 µM)
Escherichia coli ECOR53, plasmid: none	3.33 ± 1 µg/mL (≈ 2.88 µM)
Escherichia coli ECOR53, plasmid: pUN4 empty	4.33 ± 2 µg/mL (≈ 3.75 µM)
Escherichia coli ECOR53, plasmid: pUN4 with blaCTX-M-15	3.33 ± 1 µg/mL (≈ 2.88 µM)
Escherichia coli ECOR53, plasmid: pUN4 with blaOXA-48	3 ± 1.1 µg/mL (≈ 2.6 µM)
Escherichia coli ECOR61, plasmid: none	3.67 ± 0.82 µg/mL (≈ 3.17 µM)
Escherichia coli ECOR61, plasmid: pUN4 empty	4 µg/mL (≈ 3.46 µM)
Escherichia coli ECOR61, plasmid: pUN4 with blaCTX-M-15	3 ± 1.1 µg/mL (≈ 2.6 µM)
Escherichia coli ECOR61, plasmid: pUN4 with blaOXA-48	3.33 ± 1 µg/mL (≈ 2.88 µM)
Escherichia coli ECOR70, plasmid: none	6 ± 2.2 µg/mL (≈ 5.19 µM)
Escherichia coli ECOR70, plasmid: pUN4 empty	6 ± 2.2 µg/mL (≈ 5.19 µM)
Escherichia coli ECOR70, plasmid: pUN4 with blaCTX-M-15	3.33 ± 1 µg/mL (≈ 2.88 µM)
Escherichia coli ECOR70, plasmid: pUN4 with blaOXA-48	3.33 ± 1 µg/mL (≈ 2.88 µM)
Escherichia coli J53, plasmid: none	4.73 µg/mL and 6 µg/mL
Escherichia coli J53, plasmid: pOXA-48 DEL (blaOXA-48 not expressed)	4.53 ± 1.4 µg/mL (≈ 3.92 µM)
Escherichia coli J53, plasmid: pOXA-48 PV-B (blaOXA-48)	1.83 ± 0.41 µg/mL (≈ 1.59 µM)
Escherichia coli J53, plasmid: pOXA-48 PV-D (blaOXA-48)	2.17 ± 0.98 µg/mL (≈ 1.88 µM)
Escherichia coli J53, plasmid: pOXA-48 PV-E (blaOXA-48)	1.67 ± 0.52 µg/mL (≈ 1.44 µM)
Escherichia coli J53, plasmid: pOXA-48 PV-K (blaOXA-48)	1.83 ± 0.41 µg/mL (≈ 1.59 µM)
Escherichia coli J53, plasmid: pOXA-48 PV-O (blaOXA-48)	1.83 ± 0.41 µg/mL (≈ 1.59 µM)
Escherichia coli J53, plasmid: pOXA-48 TET (blaOXA-48 replaced by tetC)	3.67 ± 0.82 µg/mL (≈ 3.17 µM)
Escherichia coli J53, plasmid: pOXA-48 WT (blaOXA-48)	1.8 ± 0.41 µg/mL (≈ 1.56 µM)
Escherichia coli J53, plasmid: pUN4 empty	6 µg/mL and 5.11 µg/mL
Escherichia coli J53, plasmid: pUN4 with blaCTX-M-15	3.33 ± 1 µg/mL (≈ 2.88 µM)
Escherichia coli J53, plasmid: pUN4 with blaOXA-48	3.67 µg/mL and 1.78 µg/mL
Escherichia coli J53, plasmid: pUN4 with the DEL allele of blaOXA-48	4.67 ± 2.6 µg/mL (≈ 4.04 µM)
[1], plasmid: none	7.33 ± 1.6 µg/mL (≈ 6.35 µM)
[1], plasmid: pBAD18 empty	6 ± 2.2 µg/mL (≈ 5.19 µM)
[1], plasmid: pBAD18 with blaCTX-M-14	4 µg/mL (≈ 3.46 µM)
[1], plasmid: pBAD18 with blaCTX-M-15	4 µg/mL (≈ 3.46 µM)
[1], plasmid: pBAD18 with blaKPC-2	4.67 ± 1.6 µg/mL (≈ 4.04 µM)
[1], plasmid: pBAD18 with blaNDM-1	4.67 ± 1.6 µg/mL (≈ 4.04 µM)
[1], plasmid: pBAD18 with blaOXA-1	4.67 ± 1.6 µg/mL (≈ 4.04 µM)
[1], plasmid: pBAD18 with blaOXA-48	3.67 ± 0.82 µg/mL (≈ 3.17 µM)
[1], plasmid: pBAD18 with blaTEM-1	4.67 ± 1.6 µg/mL (≈ 4.04 µM)

Source: the supplement of paper PMC11148083
